# Results: the supplement of paper PMC11417369
# ± gives the standard deviation of the averaged measurements. The list shows a part of the results.
# System: PfAP2-I AP2 domain 3 (GST-tagged)
# Assay: gcPBM binding intensity (ln(normalized median fluorescence intensity)); higher = stronger DNA binding
# How it was run: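 Using an Agilent 4 × 180k array, primer-extended double-stranded 36-bp intergenic genomic probes and negative controls were exposed for 1 h to GST-fused P. falciparum DNA-binding domains expressed in E. coli. Binding was carried out in 1× PBS with 1% milk, 0.2 mg/ml BSA, 0.5% salmon testes DNA and 0.03% Triton X-100, and protein was detected with Alexa488 anti-GST antibody and a 488 nm scan. Binding intensity is the highest Masliner-normalised natural-log median intensity across replicate spots of either probe orientation.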
row,Sequence,gcPBM binding intensity (ln)
1,GATGAATAATATGTATGTACATATGCATTATGATGT [XGTACX_site7655],8.24 ± 0.59
2,ACATATAGATAAATATGTACATATATATATATATAT [XGTACX_site1806],9.22 ± 0.22
3,TGTAATATATGTATTGCACACCTATAACCATTATTT [CACACA_site8422],9.89 ± 0.3
4,ATAATTATATTTAGTGGTACTACTTTTGATAATTAG [XGTACX_site6562],7.61 ± 0.44
5,TATAAGTGCCGTTATACACACGTTATATAAATATTA [CACACA_site4401],8.31 ± 0.11
6,ATCAAAAGAAGACACACACACATACCTATAAATATA [CACACA_site7736],7.86 ± 0.45
7,AATAGTTATTCCAGGTGTACATAACATATAATTTAC [XGTACX_site1340],7.95 ± 0.64
8,TTATTATTATTACTTACGCACACTTTTTTTTTTATT [CACACA_site411],8.66 ± 0.52
9,GACAATTATATGTAGGTGCATATACAAATTTTTTAA,10.4 ± 0.57
10,ATAGGATATTATTCCTGTACATATATATATATATAT [XGTACX_site2108],9.12 ± 0.47
11,ATAAAAAATATCACATAAAATAAAAAAAGAAAGGAT [XGTACX_negctrl_site294],8.18 ± 0.58
12,ATATATAAAAATAAATGTACATATTCATATGATGAT [XGTACX_site3411],7.75 ± 0.41
13,TATATATATACAGTAGTGCATATATTTAAAATATAT [GTGCAC_site9999],10.3 ± 0.29
14,TATATATAAAAATATACACACTGTATTATTGTAATA [CACACA_site5959],7.51 ± 0.38
15,ATATAAGTATATCTATGTACATACAATATAAATGTA [XGTACX_site2153],7.72 ± 0.34
16,TATATACATACATATTGTACTTATAAAGATTAATTT [XGTACX_site2203],7.59 ± 0.22
17,ATAACGAACACTATTACACACATACATACATATGTA [CACACA_site5092],8.12 ± 0.5
18,AAAAAAAAAAAAAACACACACACATAGACCTCCAAT [CACACA_site3563],8.37 ± 0.69
19,ATATATATATATATATGTACATACAATTATATTCTC [XGTACX_site1133],9.53 ± 0.47
20,AAAAATCATTTAAGAACACACAAATATTTCCATTAA [CACACA_site1488],7.37 ± 0.69
21,TACATAAATTTTAATACATGCAAATAAAATATATAA [TGCATGCA_site131],8.29 ± 0.79
22,AATCTTCTTAATTGTAGTACACAATTTATAAACAAA [XGTACX_site8706],8.18 ± 0.17
23,AGGAGGATAGTTCACAGTACCCAGTAACTCTACGGA [XGTACX_site1997],7.44 ± 0.62

row,Sequence,gcPBM binding intensity (ln)
1,GCATATATGGATATATAGGTATATATAAATGCAATA [GTGCAC_negctrl_site24],7.82 ± 0.71
2,CCTCTCATTTTATATAGTACATATTTCAAAAAAAAA [XGTACX_site488],7.96 ± 0.36
3,GCATATTTTCCCTGTGAATAAAGTTTTTTTTTTTAT [XGTACX_negctrl_site87],7.76 ± 0.93
4,ATATAAAAAAAAAATTGTACAAAAATATATACATAT [XGTACX_site469],7.67 ± 0.48
5,TATAAAGATATAAATGCACACGTATTAAAAAAAAAA [CACACA_site8223],9.47 ± 0.17
6,TCTAATACACAATGTTGTACATATTAATATATATGT [XGTACX_site2931],7.91 ± 0.38
7,ATCATTCTTAAACCGTGTACTTATTATTTTTTTTTT [XGTACX_site2798],8.18 ± 0.52
8,AAAATACACGATAGTTGTACATTAAATGTATACAAT [XGTACX_site360],7.74 ± 0.45
9,CATCCGTTGATATATGCATGCATATTGTTATTACCA [TGCATGCA_site868],7.96 ± 0.88
10,AAATGACTATATAAAAGTACTAGAAAGTATAAATAT [XGTACX_site944],7.75 ± 0.59
11,AAAAATAGAGCAGCTCTCATATTTTTATGTGCAATA [CACACA_negctrl_site837],8.28 ± 0.57
12,ACAAAAATATTTGTAAAAAGAAATATAAATAAATAA [TGCATGCA_negctrl_site357],7.61 ± 0.74
13,TATTACACACAATATTGTACACATAGGAAAAATATT [XGTACX_site1726],8.12 ± 0.4
14,GCATTTATGAAAAATGTACACACATCAAATGCTTAT [CACACA_site9347],7.74 ± 0.47
15,AGGATATATTATATGTACACACACATATAAGGGATT [GTGCAC_negctrl_site47],7.96 ± 0.67
16,TATTTTTTACATTCGTGTACGCATTTTTGTGAATTT [XGTACX_site5339],7.99 ± 0.6
17,TAATTGTAGACATGCACACACAAATATTATATATGT [CACACA_site845],8.12 ± 0.54
18,TAATTTTTTTTAAACACACACATTACATTCAAAAAT [CACACA_site127],7.8 ± 0.47
19,TTCACTAATAAATACGCACACATATACATATATATA [CACACA_site1383],8.57 ± 0.6
20,TTTCAAATATATATAGCACACAAGGTATAATATAAA [CACACA_site877],8.74 ± 0.085
21,TTTTAATTAGTACAAACACACATATACACCCAAAAA [CACACA_site5422],8.64 ± 0.26
22,ATATAAAAAAGGGAGGTAAATGAATGTGAAACCCAA [GTGCAC_negctrl_site359],7.84 ± 0.76
23,CTAATATAGGTATGCACACACAATATGTACATATTT [CACACA_site7558],8.41 ± 0.43

row,Sequence,gcPBM binding intensity (ln)
1,AAGGTATAGAAACACACACACGTGAATATAGTTTAA [CACACA_site5109],7.69 ± 0.52
2,CGTTATATAATAAAGGTGCATAGATATATCATTATA [GTGCAC_site9774],10.2 ± 0.25
3,TATATAACATATATATGTACACATAATATCAGATTT [XGTACX_site1041],7.77 ± 0.35
4,TATATATGTATATATTGTACTTTAAGACAAATATAT [XGTACX_site1052],7.61 ± 0.47
5,AATATTTTTCAATTTCATGTGCATTCATTGAAGTTA [CACACA_negctrl_site1232],8.76 ± 0.37
6,TTCTTAAATATATTCAACATACATAATATATAATCT [CACACA_negctrl_site1806],7.63 ± 0.56
7,ATGTTTAAATTTTTCAGTACATATATTCTAGTAAAA [XGTACX_site1010],7.83 ± 0.48
8,GATATATTACTTAAAATACACACCATGGAAAAGTTT [CACACA_site2606],7.97 ± 0.61
9,GAATATGTTAACATTTGTACATAAAATTTTTTACAA [XGTACX_site2444],7.83 ± 0.35
10,AATATATATATATATCCACACACATACATATATTAA [CACACA_site7907],7.92 ± 0.51
11,ATGGTTTTTATTTTATGTACTTACTAAAATGAATAA [XGTACX_site4317],7.97 ± 0.27
12,TACATAAAAATATATGCATGTTCTTATTTAATAAAA [TGCATGCA_site743],7.57 ± 0.38
13,ATATGTAAAATATGGTGTACAATCAAATAAAAAAAA [XGTACX_site6270],8.21 ± 0.3
14,ATTAATATATTTACCACACACCCATTTCGATTTTAT [CACACA_site3605],8.16 ± 0.59
15,CATATAAAAGGACACACACACACATATATATATATA [CACACA_site4674],9.27 ± 0.16
16,TATTTTATTTTTTGTTGTACATATATATTATATATA [XGTACX_site4513],8.11 ± 0.38
17,TATACATAAAAAAATTTTACCAGGTTAATACAAATA [CACACA_negctrl_site1171],7.67 ± 0.45
18,TTCCTTTGTTGTCGTTGTACTTATATGGTTATAATT [XGTACX_site3082],8.29 ± 0.64
19,TACCTTATGTTATATACACACATATAACATAATATA [CACACA_site6741],7.97 ± 0.59
20,ATATATATATATAGTAGTACTCTCTCTGTATATATA [XGTACX_site3754],9.23 ± 0.39
21,ATTTAGAAAAATAAAACACACATATATCTGTAAATA [CACACA_site6119],7.72 ± 0.38
22,AAAAAAATCTCCAGTGTGCACAATCACATAATATAT [GTGCAC_site9833],10.24 ± 0.064
23,GAGATAAAATAAAACACACACATATATATATAGAAT [CACACA_site2197],7.87 ± 0.78

row,Sequence,gcPBM binding intensity (ln)
1,TATAAGCTAAGTTGTTGTACAAAAAGGAAAAGTATA [XGTACX_site3741],8.16 ± 0.38
2,TGTTACATAAAATGCACACTTTCAAATATGCTAATA [CACACA_site2925],9.26 ± 0.26
3,AAATATAAATATACTCGTACATATATATATATATAT [XGTACX_site6940],9.43 ± 0.69
4,TATACGTATTTTATATGTACACATATACATATTTAT [XGTACX_site5301],7.88 ± 0.2
5,TTTTCTTTTAAGTTTGTTTTACACTTTTTATTTTGA [CACACA_negctrl_site1581],7.51 ± 0.64
6,ACTATATTTCATAACAGTACATATTCCTGAAACATC [XGTACX_site4924],8.2 ± 0.43
7,CATGCTTATATGTGCACACACAAAAGAAAAGAAAAA [CACACA_site1655],10.2 ± 0.49
8,ACAATATAAAAAAATTGTACATAATATATAATATTA [XGTACX_site1040],7.47 ± 0.35
9,ATTATTTTATTTATTGGTACGTAATTGTAGATTTCT [XGTACX_site3697],7.92 ± 0.49
10,TGGAGATAAAATAAAACACACACATATATATATATA [CACACA_site8683],9.23 ± 0.32
11,ATACATTCTTATTACTGTACAGGGTTAATTATTTGT [XGTACX_site948],7.85 ± 0.65
12,GCAAAAACAAACGTCACACATACAAAGGCCGTGTAA [CACACA_site6043],7.67 ± 0.59
13,ATGTTGAGTATATATACACACATACAGATATATATA [CACACA_site4967],7.82 ± 0.63
14,TCCACACAATTTATAACATGCAAAAAGGCAATAATA [TGCATGCA_site773],8.04 ± 0.61
15,TAGGTATATAAATAATGTACATATAAACTATATAGA [XGTACX_site2597],7.79 ± 0.38
16,ATTTTTTTGGAATTCACACACAAAAAAAAAAATAAA [CACACA_site2081],7.75 ± 0.4
17,AATTAGACATAATATACACACATATATTATATATAT [CACACA_site2691],8.43 ± 0.47
18,TTCAAAAGATATATCGTGCACATATATATGATGAAA,11.155 ± 0.007
19,CAAAATATATTGAATTGTACATAAAAATAAAAATTA [XGTACX_site4193],7.72 ± 0.53
20,TTTATTTTATCATTTGCACACGCACGCCCACATAAA [CACACA_site353],9.65 ± 0.042
